The test system of the test is TYKNU. Description: fractional viability relative to vehicle; TYKNU is a high-grade serous ovarian cancer line; higher = less growth inhibition. As to conditions: 72 h. In short, it runs like this: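 Drug treatment lasted 72 h, with cells grown at 37 °C in 5% CO2 in RPMI 1640 supplemented with 10% FBS. Beforehand, TYKNU control cells or their lentiCRISPRv2 knockout derivatives had been seeded at 500 cells per well into drug-stamped 384-well plates carrying a ~2100-compound library at 2 or 10 μM, in duplicate. Viability came from Cell Titer Glo luminescence, with averaged duplicate treatment wells normalised to duplicate control wells in the same plate position.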

Setting [1] is: 2uM, genotype: DNM1L knockout (sgDNM1L #1).
The mark [2] stands for this setting: 2uM, genotype: sgCTRLA1 (non-targeting control).
Where [3] appears, read: 10uM, genotype: DNM1L knockout (sgDNM1L #1).
The mark [4] stands for this setting: 10uM, genotype: sgCTRLA1 (non-targeting control).

This is an account of results in the supplement of paper PMC5919970.

Where a name gives a salt, the structure may show the parent alone. In all, about 2,000 compounds were measured (“fractional viability relative to vehicle”: median about 0.91, lowest 2% from about 0.045 on). Some of the results follow.

On to `Clc1ccc(C(Cn2ccnc2)OCc2c(Cl)cccc2Cl)c(Cl)c1` (stereo unspecified) [Isoconazole nitrate], for which the fractional viability was found to be 0.855 under setting [1], 1.05 under setting [2], 0.545 under setting [3] and 0.894 under setting [4].

In the case of `CNc1nc(Nc2cnn([C@H]3CCN(C4COC4)C[C@@H]3F)c2Cl)ncc1C(F)(F)F`, the fractional viability runs as follows: under setting [1], 0.945; under setting [2], 0.991; under setting [3], 0.995; under setting [4], 0.718.

For `NC(=O)N1c2ccccc2C=Cc2ccccc21` [Carbamazepine], the fractional viability runs as follows: under setting [1], 1.01; under setting [2], 1.23; under setting [3], 0.922; under setting [4], 1.07.

`CC(C)n1nc(-c2cc3cc(O)ccc3[nH]2)c2c(N)ncnc21`: the fractional viability is, setting by setting: under setting [1], 0.422; under setting [2], 0.417; under setting [3], 0.12; under setting [4], 0.117.

As for `O=c1cc(-c2ccc(O)cc2)oc2cc(O)cc(O)c12` [Apigenin], the fractional viability was determined as 1.03 under setting [1], 1.14 under setting [2], 1.01 under setting [3] and 1.14 under setting [4].

In turn, `CO[C@H]1/C=C/O[C@@]2(C)Oc3c(C)c(O)c4c(c3C2=O)C2=NC3(CCN(CC(C)C)CC3)NC2=C(NC(=O)/C(C)=C\C=C\[C@H](C)[C@H](O)[C@@H](C)[C@@H](O)[C@@H](C)[C@H](OC(C)=O)[C@@H]1C)C4=O` [Rifabutin] displayed a fractional viability under setting [1] of 1.01, a fractional viability under setting [2] of 1.1, a fractional viability under setting [3] of 0.608 and a fractional viability under setting [4] of 0.932.

Turning to `C[C@@H](N)[C@H]1CC[C@H](C(=O)Nc2ccncc2)CC1`, the fractional viability came to 0.982 under setting [1], 1.19 under setting [2], 0.953 under setting [3] and 1.21 under setting [4].

For the compound `COc1ccc(-c2cc(=O)c3c(O)cc(O)cc3o2)cc1O` [Diosmetin], the fractional viability by setting is: under setting [1], 1.35; under setting [2], 1.27; under setting [3], 0.942; under setting [4], 1.14.

In the case of `CN1CC[C@H](c2c(O)cc(O)c3c(=O)cc(-c4ccccc4Cl)oc23)[C@H](O)C1` [Flavopiridol (Alvocidib)], the fractional viability reads like this: under setting [1], 0.463; under setting [2], 0.297; under setting [3], 0.442; under setting [4], 0.324.

As to `CN1CC[C@H](c2c(O)cc(O)c3c(=O)cc(-c4ccccc4Cl)oc23)[C@H](O)C1` [Flavopiridol HCl], the fractional viability was determined as 0.707 under setting [1], 0.334 under setting [2], 0.741 under setting [3] and 0.339 under setting [4].

With `Nc1nc(Cl)nc2c1ncn2[C@@H]1O[C@H](CO)[C@@H](O)[C@@H]1F` [Clofarabine], the fractional viability runs as follows: under setting [1], 0.312; under setting [2], 0.309; under setting [3], 0.261; under setting [4], 0.278.

`O=C1CN2Cc3c(ccc(Cl)c3Cl)N=C2N1` [Anagrelide HCl] displayed a fractional viability under setting [1] of 1.06, a fractional viability under setting [2] of 1.18, a fractional viability under setting [3] of 0.579 and a fractional viability under setting [4] of 0.967.

`CN(C)Cc1c(C(=O)NCCOc2ccc(C(=O)NO)cc2)oc2ccccc12`: the fractional viability under setting [1] came to 0.184, the fractional viability under setting [2] was 0.244, the fractional viability under setting [3] was 0.0877 and the fractional viability under setting [4] turned out to be 0.133.

Consider `O=c1[nH]c(=O)n(C2CC(O)C(CO)O2)cc1Br` (stereo unspecified) [Bromodeoxyuridine (BrdU)], for which the fractional viability was found to be 0.823 under setting [1], 0.962 under setting [2], 0.859 under setting [3] and 0.64 under setting [4].

On to `CC(=O)N1c2ccc(-c3ccc(C(=O)O)cc3)cc2[C@H](Nc2ccc(Cl)cc2)C[C@@H]1C`, for which the fractional viability was determined as 0.281 under setting [1], 0.395 under setting [2], 0.237 under setting [3] and 0.208 under setting [4].

Take `CC[C@H]1OC(=O)[C@H](C)[C@@H](O[C@H]2C[C@@](C)(OC)[C@@H](O)[C@H](C)O2)[C@H](C)[C@@H](O[C@@H]2O[C@H](C)C[C@H](N(C)C)[C@H]2O)[C@](C)(O)C[C@@H](C)/C(=N\OCOCCOC)[C@H](C)[C@@H](O)[C@]1(C)O` [Roxithromycin]: the fractional viability is, setting by setting: under setting [1], 0.964; under setting [2], 1.2; under setting [3], 0.879; under setting [4], 1.14.

Take `Nc1nc(F)nc2c1ncn2[C@@H]1O[C@H](CO)[C@@H](O)[C@@H]1O` [Fludarabine]: the fractional viability is, setting by setting: under setting [1], 0.24; under setting [2], 0.29; under setting [3], 0.196; under setting [4], 0.153.

Regarding `CC(C)CC(=O)Nc1n[nH]c2c1CN(C(=O)C1CCN(C)CC1)C2(C)C`, the fractional viability is, setting by setting: under setting [1], 0.298; under setting [2], 0.302; under setting [3], 0.316; under setting [4], 0.308.

As to `O=C(NCCS(=O)(=O)c1ccc(C(F)(F)F)cn1)c1ccc(Cl)cc1`, the fractional viability by setting is: under setting [1], 0.677; under setting [2], 0.949; under setting [3], 0.668; under setting [4], 0.744.

As to `CCOC(=O)[C@H](CCc1ccccc1)N[C@H]1CCc2ccccc2N(CC(=O)O)C1=O` [Benazepril HCl], the fractional viability stood at 1.1 under setting [1], 1.2 under setting [2], 0.902 under setting [3] and 1.14 under setting [4].

Turning to `O=C(Nc1c[nH]nc1-c1nc2ccc(CN3CCOCC3)cc2[nH]1)NC1CC1`, the fractional viability is, setting by setting: under setting [1], 0.346; under setting [2], 0.4; under setting [3], 0.362; under setting [4], 0.272.

In the case of `Cn1cc(-c2ccc(F)c(C(F)(F)F)c2)nc1C1CCN(c2ncnc3[nH]ncc23)CC1`, the fractional viability under setting [1] was 0.735, the fractional viability under setting [2] was found to be 0.848, the fractional viability under setting [3] amounted to 0.331 and the fractional viability under setting [4] amounted to 0.583.

Turning to `COC1=C(OC)C(=O)C(CCCCCCCCCCO)=C(C)C1=O` [Idebenone], the fractional viability was 0.901 under setting [1], 0.996 under setting [2], 0.805 under setting [3] and 1.1 under setting [4].

As for `COc1cc(OC)c2c(=O)[nH]c(-c3cc(C)c(OCCO)c(C)c3)nc2c1`, the fractional viability amounted to 1.15 under setting [1], 1.12 under setting [2], 0.973 under setting [3] and 1.03 under setting [4].

Take `O=C(c1cccc(Cl)c1F)N1CCN(Cc2cccc(Nc3nccs3)n2)CC1`: the fractional viability amounted to 0.615 under setting [1], 0.91 under setting [2], 0.436 under setting [3] and 0.746 under setting [4].

The compound `CC(C)[C@H]1C(=O)N[C@@H](CCCNC(=N)N)C(=O)NCC(=O)N[C@@H](CC(=O)O)C(=O)N[C@H](Cc2ccccc2)C(=O)N1C` [Cilengitide] returned a fractional viability under setting [1] of 0.804, a fractional viability under setting [2] of 0.833, a fractional viability under setting [3] of 0.619 and a fractional viability under setting [4] of 0.755.

As to `Cc1ccc(C(=O)Nc2ccc(CN3CCN(C)CC3)c(C(F)(F)F)c2)cc1C#Cc1cnc2cccnn12`, the fractional viability reads like this: under setting [1], 0.227; under setting [2], 0.185; under setting [3], 0.0344; under setting [4], 0.0177.

As to `O=C(Nc1cccc2c(=O)cc(-c3nnn[nH]3)oc12)c1ccc(OCCCCc2ccccc2)cc1` [Pranlukast], the fractional viability runs as follows: under setting [1], 1.1; under setting [2], 0.946; under setting [3], 0.927; under setting [4], 0.916.

Turning to `CC(C)(C)NC[C@H](O)COc1nsnc1N1CCOCC1` [Timolol Maleate], the fractional viability worked out at 1.04 under setting [1], 1.1 under setting [2], 1.05 under setting [3] and 1.03 under setting [4].
